# In all, about 2,900 compounds were measured (“NF-kB SEAP reporter activity, fold change vs agonist alone”: median about 0.99, highest 2% from about 2.6 on). The list shows a part of the results.
# What was measured:
# [1] = test system: RAW-Dual; assay: NF-kB SEAP reporter activity, fold change vs agonist alone; higher = enhanced NF-kB activity; conditions: cytotoxicity flag (confluency mask): not cytotoxic
# In short: (§1)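 After 50 nL of library stock was delivered by pin tool to RAW-Dual macrophages (50,000 cells/well, DMEM, 384-well plates), a PRR agonist was added 1 h later and the plates were kept at 37 °C, 5% CO2. Twenty hours later, IRF was read from supernatant by QuantiLuc luminescence and NF-κB by QuantiBlue absorbance at 620 nm. Reporter activity is stated as fold change over agonist-alone wells. Wells with IncuCyte confluency under 70% of agonist controls in both mask sets were counted as cytotoxic.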
# [2] = test system: RAW-Dual; assay: NF-kB SEAP reporter activity, fold change vs agonist alone; cytotoxicity flag (confluency mask): not cytotoxic; higher = enhanced NF-kB activity
# In short: as §1
# [3] = library stock concentration (final ~1000-fold dilution): 10 mM, agonist: Imiquimod (TLR7) […]
# [4] = library stock concentration (final ~1000-fold dilution): 10 mM, agonist: MPLA (TLR4) […]
# [5] = agonist: ODN 1826 (TLR9) 0.5 ug/mL
# [6] = agonist: Pam2CSK4 (TLR2/6) 0.1 ug/mL
# [7] = agonist: Pam3CSK4 (TLR2/1) 0.1 ug/mL
smiles,measurement,setting,value
CC(C)NCCCn1c(Sc2cc3c(cc2I)OCO3)nc2c(N)ncnc21,NF-kB SEAP reporter activity,[1]; [3],0.153
same,NF-kB SEAP reporter activity,[1]; [4],0.524
Cc1cccc(Nc2nc(-c3ccncc3)cs2)c1,NF-kB SEAP reporter activity,[1]; [3],1.89
same,NF-kB SEAP reporter activity,[1]; [4],2.08
Cc1cccc(Nc2nc(-c3ccncc3)cs2)c1 (library stock concentration (final ~1000-fold dilution): 10 mM),NF-kB SEAP reporter activity,[2]; agonist: LPS (TLR4) 0.1 ug/mL,2.85
same,NF-kB SEAP reporter activity,[2]; [5],1.3
same,NF-kB SEAP reporter activity,[2]; [6],0.662
same,NF-kB SEAP reporter activity,[2]; [7],1
C=C(C)CSc1nnc2c(n1)[nH]c1ccccc12 (library stock concentration (final ~1000-fold dilution): 10 mM),NF-kB SEAP reporter activity,[2]; agonist: LPS (TLR4) 0.1 ug/mL,1.53
same,NF-kB SEAP reporter activity,[2]; [5],0.828
same,NF-kB SEAP reporter activity,[2]; [6],0.957
same,NF-kB SEAP reporter activity,[2]; [7],1.14
C=C(C)CSc1nnc2c(n1)[nH]c1ccccc12,NF-kB SEAP reporter activity,[1]; [3],0.751
same,NF-kB SEAP reporter activity,[1]; [4],1.01
CC1(C)CC(=O)c2c(C(F)(F)F)nn(-c3ccc(C(N)=O)c(NC4CCC(O)CC4)c3)c2C1 (centres undefined),NF-kB SEAP reporter activity,[1]; [3],0.988
same,NF-kB SEAP reporter activity,[1]; [4],0.65
CC1(C)CC(=O)c2c(C(F)(F)F)nn(-c3ccc(C(N)=O)c(NC4CCC(O)CC4)c3)c2C1 (centres undefined) (library stock concentration (final ~1000-fold dilution): 10 mM),NF-kB SEAP reporter activity,[2]; agonist: LPS (TLR4) 0.1 ug/mL,0.21
same,NF-kB SEAP reporter activity,[2]; [5],0.898
same,NF-kB SEAP reporter activity,[2]; [6],0.0968
same,NF-kB SEAP reporter activity,[2]; [7],0.392
Cc1ccc(NC(=S)NNc2c([N+](=O)[O-])cc(C(F)(F)F)cc2[N+](=O)[O-])cc1Cl (library stock concentration (final ~1000-fold dilution): 10 mM),NF-kB SEAP reporter activity,[2]; agonist: LPS (TLR4) 0.1 ug/mL,0.48
same,NF-kB SEAP reporter activity,[2]; [5],0.459
same,NF-kB SEAP reporter activity,[2]; [6],0.311
same,NF-kB SEAP reporter activity,[2]; [7],0.371
Cc1ccc(NC(=S)NNc2c([N+](=O)[O-])cc(C(F)(F)F)cc2[N+](=O)[O-])cc1Cl,NF-kB SEAP reporter activity,[1]; [3],0.763
same,NF-kB SEAP reporter activity,[1]; [4],1.12
COc1c(O)cc(O)c2c(=O)cc(-c3ccccc3)oc12 (library stock concentration (final ~1000-fold dilution): 10 mM),NF-kB SEAP reporter activity,[2]; agonist: LPS (TLR4) 0.1 ug/mL,1.37
same,NF-kB SEAP reporter activity,[2]; [5],1.3
same,NF-kB SEAP reporter activity,[2]; [6],1.4
same,NF-kB SEAP reporter activity,[2]; [7],1.1
COc1c(O)cc(O)c2c(=O)cc(-c3ccccc3)oc12,NF-kB SEAP reporter activity,[1]; [4],1.34
Nc1ccc(S(N)(=O)=O)cc1,NF-kB SEAP reporter activity,[1]; [3],0.983
same,NF-kB SEAP reporter activity,[1]; [4],1.05
Nc1ccc(S(N)(=O)=O)cc1 (library stock concentration (final ~1000-fold dilution): 10 mM),NF-kB SEAP reporter activity,[2]; agonist: LPS (TLR4) 0.1 ug/mL,0.899
same,NF-kB SEAP reporter activity,[2]; [5],1.01
same,NF-kB SEAP reporter activity,[2]; [6],1.01
same,NF-kB SEAP reporter activity,[2]; [7],1.17
Cc1c(-c2ccc(C(N)=O)c3[nH]c4cc(C(C)(C)O)ccc4c23)cccc1-n1cnc2ccccc2c1=O (library stock concentration (final ~1000-fold dilution): 10 mM),NF-kB SEAP reporter activity,[2]; agonist: LPS (TLR4) 0.1 ug/mL,1.25
same,NF-kB SEAP reporter activity,[2]; [5],1.1
same,NF-kB SEAP reporter activity,[2]; [6],0.537
same,NF-kB SEAP reporter activity,[2]; [7],0.833
Cc1c(-c2ccc(C(N)=O)c3[nH]c4cc(C(C)(C)O)ccc4c23)cccc1-n1cnc2ccccc2c1=O,NF-kB SEAP reporter activity,[1]; [3],1.76
same,NF-kB SEAP reporter activity,[1]; [4],1.37
O=C(CCN1CCN(C(=O)OCc2cc(Cl)cc(Cl)c2)CC1)c1ccc2[nH]c(=O)oc2c1 (library stock concentration (final ~1000-fold dilution): 10 mM),NF-kB SEAP reporter activity,[2]; agonist: LPS (TLR4) 0.1 ug/mL,0.787
same,NF-kB SEAP reporter activity,[2]; [5],0.492
same,NF-kB SEAP reporter activity,[2]; [6],0.442
same,NF-kB SEAP reporter activity,[2]; [7],0.291
O=C(CCN1CCN(C(=O)OCc2cc(Cl)cc(Cl)c2)CC1)c1ccc2[nH]c(=O)oc2c1,NF-kB SEAP reporter activity,[1]; [3],0.98
same,NF-kB SEAP reporter activity,[1]; [4],0.843
COc1ccc(-c2oc3c(CC=C(C)C)c(O)cc(O)c3c(=O)c2O)cc1,NF-kB SEAP reporter activity,[1]; [3],0.959
same,NF-kB SEAP reporter activity,[1]; [4],1.22
COc1ccc(-c2oc3c(CC=C(C)C)c(O)cc(O)c3c(=O)c2O)cc1 (library stock concentration (final ~1000-fold dilution): 10 mM),NF-kB SEAP reporter activity,[2]; agonist: LPS (TLR4) 0.1 ug/mL,1.46
same,NF-kB SEAP reporter activity,[2]; [5],0.962
same,NF-kB SEAP reporter activity,[2]; [6],1.06
same,NF-kB SEAP reporter activity,[2]; [7],1.39
CCCCNc1ncc(-c2ccc(CN3CCOCC3)cn2)c(NC2CCC(O)CC2)n1 (centres undefined) (library stock concentration (final ~1000-fold dilution): 2 mM),NF-kB SEAP reporter activity,[2]; agonist: LPS (TLR4) 0.1 ug/mL,0.765
same,NF-kB SEAP reporter activity,[2]; [5],0.788
same,NF-kB SEAP reporter activity,[2]; [6],0.814
same,NF-kB SEAP reporter activity,[2]; [7],0.886
CCCCNc1ncc(-c2ccc(CN3CCOCC3)cn2)c(NC2CCC(O)CC2)n1 (centres undefined),NF-kB SEAP reporter activity,"[1]; library stock concentration (final ~1000-fold dilution): 2 mM, agonist: Imiquimod (TLR7) […]",0.899
same,NF-kB SEAP reporter activity,"[1]; library stock concentration (final ~1000-fold dilution): 2 mM, agonist: MPLA (TLR4) […]",0.926
O=C(O)CCC(O)C(=O)O (centres undefined) (library stock concentration (final ~1000-fold dilution): 10 mM water),NF-kB SEAP reporter activity,[2]; agonist: LPS (TLR4) 0.1 ug/mL,1.12
same,NF-kB SEAP reporter activity,[2]; [5],1.15
same,NF-kB SEAP reporter activity,[2]; [6],1.16
same,NF-kB SEAP reporter activity,[2]; [7],1
O=C(O)CCC(O)C(=O)O (centres undefined),NF-kB SEAP reporter activity,"[1]; library stock concentration (final ~1000-fold dilution): 10 mM water, agonist: Imiquimod (TLR7) […]",0.954
same,NF-kB SEAP reporter activity,"[1]; library stock concentration (final ~1000-fold dilution): 10 mM water, agonist: MPLA (TLR4) […]",1.03
CC1=C(C(=O)OCCN(Cc2ccccc2)c2ccccc2)C(c2cccc([N+](=O)[O-])c2)C(P2(=O)OCC(C)(C)CO2)=C(C)N1 (centres undefined),NF-kB SEAP reporter activity,[1]; [4],0.694
CC1=C(C(=O)OCCN(Cc2ccccc2)c2ccccc2)C(c2cccc([N+](=O)[O-])c2)C(P2(=O)OCC(C)(C)CO2)=C(C)N1 (centres undefined) (library stock concentration (final ~1000-fold dilution): 10 mM),NF-kB SEAP reporter activity,[2]; agonist: LPS (TLR4) 0.1 ug/mL,0.716
same,NF-kB SEAP reporter activity,[2]; [5],0.512
same,NF-kB SEAP reporter activity,[2]; [6],0.346
same,NF-kB SEAP reporter activity,[2]; [7],0.213
CCCNS(=O)(=O)Nc1ncnc(OCCOc2ncc(Br)cn2)c1-c1ccc(Br)cc1 (library stock concentration (final ~1000-fold dilution): 10 mM),NF-kB SEAP reporter activity,[2]; agonist: LPS (TLR4) 0.1 ug/mL,1.37
same,NF-kB SEAP reporter activity,[2]; [5],0.935
same,NF-kB SEAP reporter activity,[2]; [6],0.789
same,NF-kB SEAP reporter activity,[2]; [7],0.859
CCCNS(=O)(=O)Nc1ncnc(OCCOc2ncc(Br)cn2)c1-c1ccc(Br)cc1,NF-kB SEAP reporter activity,[1]; [3],0.928
same,NF-kB SEAP reporter activity,[1]; [4],1.03
CCC(C)(Nc1ccnc(-c2c[nH]c3ncccc23)n1)C(=O)NCC(F)(F)F (centres undefined) (library stock concentration (final ~1000-fold dilution): 10 mM),NF-kB SEAP reporter activity,[2]; agonist: LPS (TLR4) 0.1 ug/mL,0.766
same,NF-kB SEAP reporter activity,[2]; [5],0.885
same,NF-kB SEAP reporter activity,[2]; [6],1.21
same,NF-kB SEAP reporter activity,[2]; [7],2.06
CCC(C)(Nc1ccnc(-c2c[nH]c3ncccc23)n1)C(=O)NCC(F)(F)F (centres undefined),NF-kB SEAP reporter activity,[1]; [3],1.14
same,NF-kB SEAP reporter activity,[1]; [4],1.13
